Among the data in patent publication US20210292392A1 are EC50 (read off the curve) values, retold here.

A word on the EC50 (read off the curve): it is the concentration at which the effect is half-maximal.

This assay has as its target recombinant RBD of the spike protein of SARS-CoV-2 (residues Arg319-Phe541) (SARS-CoV-2), P0DTC2. The experiment in a line: ELISA, coated SARS-CoV-2 RBD. The following applies: remark: other sources report otherwise.

B1: P2B-2G4 (antibody)
heavy: QVQLVESGGGVVQPGRSLRLSCAASGFTFSSYGMHWVRQAPGKGLEWVAVIWYDGSNKYYADSVKGRFTISRDNSKNTLYLQMNSLRAEDTAVYYCARGAAMVWLDYWGQGTLVTVSS[gap - human IgG1 constant region]
light: QSALTQPRSVSGSPGQSVTISCTGTSSDVGGYNYVSWYQQHPGKAPKLMIYDVSKRPSGVPDRFSGSKSGNTASLTISGLQAEDEADYYCCSYAGSYTFVVFGGGTKLTVLGQPKAAPSVTLFPPSSEELQANKATLVCLISDFYPGAVTVAWKADSSPVKAGVETTTPSKQSNNKYAASSYLSLTPEQWKSHRSYSCQVTHEGSTVEKTVAPTECS
In the case of B1, the EC50 (read off the curve) was found to be 0.5 µg/mL.
